# The list shows a part of the results.
# B1: Pbx1 (Cryptococcus neoformans) (protein)
# chain: ATTKCLVSGDQDSINNALALGGEGTTVTLCPGSVHRLNSSIIFTAPSQTLTTLGNPKDRNRAMLVVDGEDLACAIRADCKQCSHAMIRSLVIDGNRPQLLRIPKGDALIEVGNAESQTVRDCKLYEPRGWSALHFREGDERQCRFGHIVDNEIGPCGEEWDDEYDSMDETKPLWGNPRADGISLACKDSIVERNVVYDATDGAIVLFGSAGSTVKNNHVYARTRVILGGINLVDYEPWDGDYTNVKVHHNHLYALGRYFKVGIVIGPASWSDDTESVVHSASVTDNEFSGGYWGYGIVVASAKNFEVLRNKVIWDGEQGVARFSGVPGSRCPKAPENGKPTAFLINRGSAKGIFQDDFVNGEVQHIICLNPDQDPPYKPWRFRDSPEAIAAKQAENPTANSAFDSRIAEALVSYQMSLLNSMDAMTQKVEHLTNPIVDDALPFVHEHERAEADKKARQEASRKEKESGNKDVDMLNVKVEELEKSGRRLKKALDGLKSDFEGLSGRLKKSADENKPIIETIFVTSQNLLLGATSQQN
# Legend:
# Test in all cases: glycan array binding signal (z-score within array); higher = stronger binding
# Conditions in all cases: glycan notation: IUPAC condensed, linker removed
# [1] = molecular target: Man(a1-2)Man(a1-3)[Man(a1-2)Man(a1-6)]Man(a1-6)[Man(a1-2)Man(a1-2)Man(a1-3)]Man(b1-4)GlcNAc(b1-4)GlcNAc
# Outline: (§1)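 Columns mapping to the same glycan were averaged after glycan names were converted to IUPAC-condensed notation. The data come from 3228 arrays in the Consortium for Functional Glycomics database, limited to those with an available protein sequence. Binding is reported as a within-array Z-score averaged across arrays of one protein sequence and across linkers.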
# [2] = molecular target: Man(a1-2)Man(a1-3)[Man(a1-6)]Man(a1-6)[Man(a1-2)Man(a1-3)]Man(b1-4)GlcNAc(b1-4)GlcNAc
# Outline: as §1
# [3] = molecular target: Man(a1-2)Man(a1-6)[Man(a1-3)]Man(a1-6)[Man(a1-2)Man(a1-2)Man(a1-3)]Man
# Outline: as §1
# [4] = molecular target: Man(a1-2)Man(a1-6)[Man(a1-3)]Man(a1-6)[Man(a1-2)Man(a1-2)Man(a1-3)]Man(b1-4)GlcNAc(b1-4)GlcNAc
# Outline: as §1
# [5] = molecular target: Man(a1-3)[Man(a1-6)]Man
# Outline: as §1
# [6] = molecular target: Man(a1-3)[Man(a1-6)]Man(a1-6)[Man(a1-2)Man(a1-3)]Man(b1-4)GlcNAc(b1-4)GlcNAc
# Outline: as §1
# [7] = molecular target: Man(a1-3)[Man(a1-6)]Man(a1-6)[Man(a1-3)]Man
# Outline: as §1
# [8] = molecular target: Man(a1-3)[Man(a1-6)]Man(a1-6)[Man(a1-3)]Man(b1-4)GlcNAc(b1-4)GlcNAc
# Outline: as §1
# [9] = molecular target: Man(a1-3)[Man(a1-6)]Man(b1-4)GlcNAc(b1-4)GlcNAc
# Outline: as §1
# [10] = molecular target: Man(a1-3)[Man(a1-6)]Man(b1-4)GlcNAc(b1-4)[Fuc(a1-6)]GlcNAc
# Outline: as §1
# [11] = molecular target: Man(a1-6)Man
# Outline: as §1
# [12] = molecular target: Man(b1-4)GlcNAc
# Outline: as §1
# [13] = molecular target: MurNAc(b1-4)GlcNAc
# Outline: as §1
# [14] = molecular target: Neu5Ac(a2-3)Gal
# Outline: as §1
# [15] = molecular target: Neu5Ac(a2-3)Gal(b1-3)GalNAc
# Outline: as §1
# [16] = molecular target: Neu5Ac(a2-3)Gal(b1-3)GalNAc(b1-3)Gal(a1-4)Gal(b1-4)Glc
# Outline: as §1
# [17] = molecular target: Neu5Ac(a2-3)Gal(b1-3)GalNAc(b1-4)[Neu5Ac(a2-3)]Gal(b1-4)Glc
# Outline: as §1
# [18] = molecular target: Neu5Ac(a2-3)Gal(b1-3)GalNAc(b1-4)[Neu5Ac(a2-8)Neu5Ac(a2-3)]Gal(b1-4)Glc
# Outline: as §1
# [19] = molecular target: Neu5Ac(a2-3)Gal(b1-3)GalNAc6S
# Outline: as §1
# [20] = molecular target: Neu5Ac(a2-3)Gal(b1-3)GlcNAc
# Outline: as §1
# [21] = molecular target: Neu5Ac(a2-3)Gal(b1-3)GlcNAc(b1-2)Man
# Outline: as §1
# [22] = molecular target: Neu5Ac(a2-3)Gal(b1-3)GlcNAc(b1-2)Man(a1-3)[GlcNAc(b1-4)][Neu5Ac(a2-3)Gal(b1-3)GlcNAc(b1-2)Man(a1-6)]Man(b1-4)GlcNAc(b1-4)GlcNAc
# Outline: as §1
# [23] = molecular target: Neu5Ac(a2-3)Gal(b1-3)GlcNAc(b1-2)Man(a1-3)[Neu5Ac(a2-3)Gal(b1-3)GlcNAc(b1-2)Man(a1-6)]Man(b1-4)GlcNAc(b1-4)GlcNAc
# Outline: as §1
# [24] = molecular target: Neu5Ac(a2-3)Gal(b1-3)GlcNAc(b1-3)Gal(b1-3)GlcNAc
# Outline: as §1
# [25] = molecular target: Neu5Ac(a2-3)Gal(b1-3)GlcNAc(b1-3)Gal(b1-4)GlcNAc
# Outline: as §1
# [26] = molecular target: Neu5Ac(a2-3)Gal(b1-3)GlcNAc(b1-3)GalNAc
# Outline: as §1
# [27] = molecular target: Neu5Ac(a2-3)Gal(b1-3)GlcNAc(b1-4)Gal(b1-4)Glc
# Outline: as §1
# [28] = molecular target: Neu5Ac(a2-3)Gal(b1-3)GlcNAc(b1-6)GalNAc
# Outline: as §1
# [29] = molecular target: Neu5Ac(a2-3)Gal(b1-3)GlcNAc6S
# Outline: as §1
# [30] = molecular target: Neu5Ac(a2-3)Gal(b1-3)[Fuc(a1-4)]GlcNAc
# Outline: as §1
# [31] = molecular target: Neu5Ac(a2-3)Gal(b1-3)[Fuc(a1-4)]GlcNAc(b1-3)Gal(b1-3)[Fuc(a1-4)]GlcNAc
# Outline: as §1
# [32] = molecular target: Neu5Ac(a2-3)Gal(b1-3)[Fuc(a1-4)]GlcNAc(b1-3)Gal(b1-4)[Fuc(a1-3)]GlcNAc
# Outline: as §1
# [33] = molecular target: Neu5Ac(a2-3)Gal(b1-3)[GlcNAc(b1-6)]GalNAc
# Outline: as §1
# [34] = molecular target: Neu5Ac(a2-3)Gal(b1-3)[Neu5Ac(a2-6)]GalNAc
# Outline: as §1
# [35] = molecular target: Neu5Ac(a2-3)Gal(b1-3)[Neu5Ac(a2-6)]GlcNAc(b1-3)[Fuc(a1-3)[Gal(b1-4)]GlcNAc(b1-6)]Gal(b1-4)Glc
# Outline: as §1
# [36] = molecular target: Neu5Ac(a2-3)Gal(b1-3)]Neu5Ac(a2-3)Gal(b1-4)]GlcNAc
# Outline: as §1
# [37] = molecular target: Neu5Ac(a2-3)Gal(b1-4)Glc
# Outline: as §1
binder,measurement,setting,value
B1,glycan array binding signal (z-score),[1],0.114
same,glycan array binding signal (z-score),[2],-0.619
same,glycan array binding signal (z-score),[3],-0.306
same,glycan array binding signal (z-score),[4],-0.921
same,glycan array binding signal (z-score),[5],-0.673
same,glycan array binding signal (z-score),[6],-0.213
same,glycan array binding signal (z-score),[7],-0.17
same,glycan array binding signal (z-score),[8],-1.04
same,glycan array binding signal (z-score),[9],-0.173
same,glycan array binding signal (z-score),[10],-0.297
same,glycan array binding signal (z-score),[11],-0.843
same,glycan array binding signal (z-score),[12],0.583
same,glycan array binding signal (z-score),[13],5.14
same,glycan array binding signal (z-score),[14],-0.181
same,glycan array binding signal (z-score),[15],-0.093
same,glycan array binding signal (z-score),[16],-0.899
same,glycan array binding signal (z-score),[17],-0.526
same,glycan array binding signal (z-score),[18],-0.5
same,glycan array binding signal (z-score),[19],-0.58
same,glycan array binding signal (z-score),[20],-0.686
same,glycan array binding signal (z-score),[21],0.324
same,glycan array binding signal (z-score),[22],-0.214
same,glycan array binding signal (z-score),[23],0.345
same,glycan array binding signal (z-score),[24],0.288
same,glycan array binding signal (z-score),[25],-0.214
same,glycan array binding signal (z-score),[26],-0.028
same,glycan array binding signal (z-score),[27],-0.697
same,glycan array binding signal (z-score),[28],-0.879
same,glycan array binding signal (z-score),[29],-0.618
same,glycan array binding signal (z-score),[30],-0.351
same,glycan array binding signal (z-score),[31],0.727
same,glycan array binding signal (z-score),[32],-0.226
same,glycan array binding signal (z-score),[33],-0.914
same,glycan array binding signal (z-score),[34],-0.413
same,glycan array binding signal (z-score),[35],-0.698
same,glycan array binding signal (z-score),[36],-1.05
same,glycan array binding signal (z-score),[37],-0.719

# Source: the supplement of paper PMC8728848
